# This is one part of the list.
# Tested on: T1, C. trachomatis L2/434/Bu expressing GFP (CTL2-GFP)
# T1 construct: L2/434/Bu GFP intracellular growth in HeLa cells
# Set-up: species or system HeLa; C. trachomatis total inclusion area by high-content imaging, normalised to DMSO
# Settings: total inclusion area; 28.5 h, 10 µM; inhibitor
# How it was run: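 After bulk GFP and resorufin fluorescence reads, cells were fixed, stained with Hoechst and imaged by high-content microscopy. Inclusion area and number (GFP) stood in for chlamydial growth, nuclei count (Hoechst) for host cell viability. MICs were derived as for the bulk readout.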
row,SMILES,% of control remaining
1,C=CCOc1c(CNc2cccc(C(=O)O)c2)cccc1OC [CBK074432],77.7004
2,O=C1CCC[C@]2(CN(C(=O)C3CC3)C[C@H]2c2ccc(F)c(F)c2)N1 [CBK283364],77.048
3,CCc1nn(CC(=O)NC2CC2)c(=O)c2cc3sccc3n12 [CBK284029],70.9275
4,COc1ccc(NC(=O)c2cn(C)nc2CC2CCN(CCc3ccccc3)CC2)cc1 [CBK285559],86.2369
5,CC(C)N1CCN(Cc2c(C(F)(F)F)[nH]c3ncccc23)CC1 [CBK285354],101.829
6,CCN(Cc1ccncc1)C(=O)NCCOc1ccccc1 [CBK155148],118.146
7,CCCNC(=O)c1nn2c(c1Cl)NC(c1cccs1)CC2C(F)(F)F (stereo not drawn) [CBK307177],86.6143
8,O=C(CC1(C(F)(F)F)NCCN1)c1ccco1 [CBK022373],99.8267
9,CN(C)c1ccc(-c2nccnc2NS(=O)(=O)c2ccc3ccccc3c2)cc1 [CBK050794],100.17
10,CN(Cc1ccccc1N1CCOCC1)C(=O)c1ccc2ncsc2c1 [CBK296692],111.63
11,Cn1cc(-c2nccnc2OCCN2CCCC2=O)cn1 [CBK107068],101.168
12,Cc1ccc(N2C(=O)c3ccc(C(=O)c4ccc(C(=O)O)cc4)cc3C2=O)cc1 [CBK287164],99.3048
13,O=C(c1ccc(-n2ccnc2)c(-n2cccc2)c1)N1CCCCCC1 [CBK284813],112.636
14,c1ccc(COc2ccc(-c3cc(Nc4ccc5[nH]ccc5c4)ncn3)cc2)cc1 [CBK090857],76.4861
15,Cc1ccc(S(=O)(=O)NCCSc2ccc(Cl)cc2)cc1[N+](=O)[O-] [CBK264126],73.4818
16,Cc1c(S(=O)(=O)Nc2cc(C(F)(F)F)ccc2N2CCOCC2)cnn1-c1ccccc1 [CBK062551],93.0454
17,c1ccc(Cn2c(CN3CCCCC3)nc3ccccc32)cc1 [CBK269237],71.4315
18,COc1ccc(Cl)cc1NC(=O)C1CN(S(=O)(=O)c2ccccc2)CCN1S(=O)(=O)c1ccccc1 (stereo not drawn) [CBK264000],103.667
19,COc1ccc(Cl)cc1N1CCN(Cc2ccc(OC(F)(F)F)cc2)CC1 [CBK126405],88.8991
20,Cn1ncc2c1CCCC2NC(=O)N(CCO)Cc1ccccc1 (stereo not drawn) [CBK306293],60.7574
21,CCOc1cc(C(=O)O)ccc1OCCOc1cccc(C)c1 [CBK299781],85.3242
22,Cc1cc(CC(=O)Nc2ccc3[nH]ccc3c2)on1 [CBK159690],94.3033
23,Nc1nc(CSc2nnc(-c3ccccc3O)n2Cc2ccccc2)cs1 [CBK267394],111.243
24,CC(C)C[C@H](NC(=O)OC(C)(C)C)C(=O)NC[C@H]1CC[C@H](C(=O)O)CC1 [CBK286750],110.808
25,Cc1c(NC(=O)C2CN(S(=O)(=O)c3ccccc3)CCN2S(=O)(=O)c2ccccc2)c(=O)n(-c2ccccc2)n1C (stereo not drawn) [CBK264138],118.281
26,NCCCNc1ncc(C(=O)NCc2ccccc2)c(NCC2CCCCC2)n1 [CBK215386],38.7516

row,SMILES,% of control remaining
1,CSc1nc(N/N=C/c2ccc(Cl)cc2)c2c3c(sc2n1)CN(C)CC3 [CBK262588],100.288
2,O=C(Nc1cc(-c2nc3ncccc3o2)ccc1Cl)c1ccco1 [CBK269730],104.498
3,CCc1ccc(CNC(=O)Cn2nnc(-c3ccc(C(C)N4CCC(C)CC4)cc3)n2)cc1 (stereo not drawn) [CBK164199T],77.8693
4,Cc1c(C(=O)O)sc2nc(SC/C=C/c3ccccc3)nc(N)c12 [CBK300523],90.373
5,COc1ccc(CN2CCCN(c3nccc(OCc4cc(C)on4)n3)CC2)cc1 [CBK083911],57.8146
6,O=C(NCc1ccc(Cl)cc1)c1cn(-c2ccccc2)c2ccc(CN3CCOCC3)cc2c1=O [CBK018481],56.982
7,CC(NS(=O)(=O)c1ccc(OCC(=O)N2CCc3ccccc3C2)c(Cl)c1)c1ccccc1 (stereo not drawn) [CBK269117],110.99
8,O=C(/C=C/c1ccccc1Cl)NCCc1ccccc1 [CBK261794],105.234
9,CCOc1ccc(C(=O)N2CC(C(N)=O)CCC2C)cn1 (stereo not drawn) [CBK305770],125.419
10,CC1CCCN(C(=O)CN2C3CCC2CC(O)(c2ccco2)C3)C1 (stereo not drawn) [CBK284095],99.1077
11,COc1nccc(N2CCN(C(=O)C3CC3)CC(O)C2)c1C#N (stereo not drawn) [CBK306613],38.4595
12,CC(=O)N1CCc2c([nH]c3ccccc23)C12CCCN(CCC#N)C2 (stereo not drawn) [CBK039665],109.73
13,Cn1ccnc1C(NC(=O)N1CCCC1)c1ccc(F)c(F)c1 (stereo not drawn) [CBK283782],86.8051
14,Cc1ccc(-c2nnc(-c3cccc(NC(=O)CSCc4ccc(Cl)cc4)c3)o2)cc1 [CBK266789],113.713
15,COc1cc(C(=O)O)cc2c1NC(c1ccc(C(=O)O)cc1)C1CC=CC21 (stereo not drawn) [CBK287018],80.3934
16,COc1ccc(C(=O)N2CC[C@H]3NC(=O)N(c4ccc(F)cc4)C(=O)[C@H]32)cc1 [CBK289325],127.901
17,O=C(Cn1ccc(=O)[nH]c1=O)NCc1cccnc1OCC(F)(F)F [CBK304565],69.3111
18,Clc1cc(N2CCCC2)ncn1 [CBK083597],83.4774
19,COC(=O)CCc1ccc(S(=O)(=O)N2CCCN(Cc3c[nH]c4ccc(Cl)cc34)CC2)cc1 [CBK063000],73.6256
20,CC(=O)c1ccc(-c2ccc(C(=O)NCC3COc4ccccc4O3)c(NCc3cccnc3)n2)s1 (stereo not drawn) [CBK076608],128.038
21,Cc1nnc(Sc2nc3ccccc3nc2C(F)(F)F)s1 [CBK093774],106.564
22,CC(=O)Nc1cccc(NC(=O)c2cc(-c3ccccn3)nc3ccc(Cl)cc23)c1 [CBK267747],119.512
23,CN(C)C(=O)c1ccc(-c2cnc(OCC3CCN(C(=O)OC(C)(C)C)CC3)cn2)cc1F [CBK175076],143.76
24,CCn1c(=O)n(CC(=O)Nc2ccccc2F)c2cccnc21 [CBK283897],117.032
25,CC1Cc2cc(-c3cn4ccccc4n3)ccc2N1S(C)(=O)=O (stereo not drawn) [CBK285194],102.974
26,CCCc1occc1C(=O)N1CCOCC1C(=O)O (stereo not drawn) [CBK304151],30.7973

row,SMILES,% of control remaining
1,CN1CCN(CCOC(=O)N2CCN(c3cccc(C(F)(F)F)c3)CC2)CC1 [CBK115940C],83.3606
2,CC(=O)N(c1ccc2oc3c(c2c1)CCCC3)S(=O)(=O)c1ccc(C(=O)O)cc1 [CBK299808],108.025
3,Cn1c(=O)[nH]c(=O)c2c1nc(N1CCOCC1)n2CC(O)COc1ccc(I)cc1 (stereo not drawn) [CBK262438],109.697
4,CC1CCCCN1CC(=O)N(C)C(C)COc1ccc(Cl)cc1 (stereo not drawn) [CBK023201],0.06955
5,Cc1noc(C)c1NC(=O)c1cccn1C [CBK200304],120.041
6,O=C(NC[C@H]1CC[C@H](c2nnc(-c3ccsc3)o2)CC1)C1CCC1 [CBK283363],96.294
7,OC(CN1CCN(c2cccc(Cl)c2)CC1)Cn1c2ccccc2c2ccccc21 (stereo not drawn) [CBK264333],89.9054
8,CN(C)CCCNC(=O)C1CCN(c2cncc(-c3ccc(O)cc3)n2)CC1 [CBK126929T],117.463
9,Cc1cnn(CCCNC(=S)Nc2ccc(S(N)(=O)=O)cc2)c1 [CBK266957],115.98
10,CCc1cc(NC[C@@H](O)CO)nc(-c2ccc(F)c(Cl)c2)n1 [CBK132880],50.9295
11,O=C(CN1CCOCC1)NC1(c2ccccc2)CCCCC1 [CBK059545C],82.5732
12,Cc1cccn2cc(CC(=O)OCC(=O)NC(C)(C)C)nc12 [CBK304966],116.364
13,CN(C(=O)Cn1c(=O)n(C)c2ncccc21)C1CCCCC1 [CBK283791],105.617
14,COc1ccc(S(=O)(=O)N2CCC(C(=O)O)CC2)cc1Cl [CBK267162],109.805
15,COc1ccc(S(=O)(=O)N2CCN(C(=S)Nc3ccc(S(N)(=O)=O)cc3)CC2)cc1 [CBK266898],116.442
16,CCN(CC)CCn1c2ccccc2c2nc(C)sc21 [CBK266628C],116.196
17,CC(OC(=O)C1CCCCC1)c1nc2ccccc2[nH]1 (stereo not drawn) [CBK111483],83.0408
18,O=C(c1cccc2[nH]ccc12)N1CCN(CCc2ccccc2)CC1 [CBK200203],95.9229
19,CC(C)(C)C(C#N)C(Oc1ccc(Cl)cc1)n1cncn1 (stereo not drawn) [CBK023570],32.5751
20,CCn1cnnc1C1CCN(C(=O)c2ccc(C)c(Cl)c2)CC1 [CBK303997],86.0242
21,COCCN1C(=O)/C(=C2/C(=O)N(CC(=O)Nc3ccccc3)c3ccccc32)SC1=S [CBK264489],111.267
22,CCN(CC)CC(=O)Nc1ccccc1OC [CBK266213C],102.903
23,O=C1CC(c2ccccc2)CC(=O)C1=CNCCN1CCOCC1 (stereo not drawn) [CBK262522],93.0461
24,Cc1nc(NS(=O)(=O)c2cc(Cl)sc2Cl)sc1C(=O)N1CCN(C)CC1 [CBK045818],92.1847
25,O=C(COc1ccccc1)NC(=S)Nc1cc(-c2nc3ncccc3o2)ccc1Cl [CBK264380],116.505
26,CN(CCCN1CCC(C(=O)NC(c2cccnc2)c2ccc3c(c2)OCO3)CC1)S(C)(=O)=O (stereo not drawn) [CBK148505],103.409

# Source: article PMC12040169 (PLOS Biology, 2025)
